These results are taken from paper PMC12738837, “Structure of Trypanosoma peroxisomal import complex unveils conformational heterogeneity” (Nature Communications, 2025).

In the assay the target is Pex5eTPR, truncated Pex5 with the extended TPR domain and a single Wxxx(F/Y) motif, wild type (Trypanosoma cruzi) (UniProt Q4DPQ9). In words: ITC; Pex14NTD in the syringe injected into Pex5eTPR in the cell, without PTS1 peptide; 20 mM sodium phosphate, 100 mM NaCl, pH 6.5, 25 °C; independent model; single titrations (replicates), each fitted by itself. (In ITC the heat of successive injections is recorded.)

The source holds more than one record for some entries. Only these are listed. The source may hold further records. Values given together read as repeated measurements on other runs, samples or individuals; a mean can stand among them.

One may read the Kd as a measure of binding affinity in units of concentration. A higher Kd goes with lower affinity. The term stoichiometry N denotes the number of molecules, sites or subunits per partner or assembly.

“N-terminal domain of Pex14 (Pex14NTD), wild type (domain or fragment)”: the Ka is 2.8e+07 1/M, 3.4e+07 1/M, 2.9e+07 1/M, 2.2e+07 1/M, 3.2e+07 1/M [columns of one line]; the Kd was 36.1, 29.1, 34.2, 46, 30.9 nM [columns of one line]; the stoichiometry N was 0.726, 0.623, 0.646, 0.653, 0.639 [columns of one line].
